# Reference: the supplement of paper PMC4604168 (melanoma cell lines)
# The other results are listed elsewhere or left out. Single values are uncertain, as repeats are few or missing.
# Assays:
# Assay in all cases: cell count relative to DMSO control; melanoma cells; higher = more viable cells
# Conditions in all cases: library dose: low library concentration; 72 h
# WM115 = system: WM115
# WM1716 = system: WM1716
# WM1745 = system: WM1745
# WM3526 = system: WM3526
# WM3619 = system: WM3619
# WM451Lu = system: WM451Lu
# 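Also: cell number obtained by counting DAPI-stained nuclei in high-throughput microscope images with image analysis software, screen run in 1,536-well plates.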
smiles,measurement,setting,value
"Cc1cc(Nc2cc(N3CCN(C)CC3)nc(/C=C/c3ccccc3)n2)n[nH]1 + CC(C)C[C@H](NC(=O)[C@H](Cc1ccccc1)NC(=O)c1cnccn1)B(O)O [Bortezomib] (first compound 0.04 µM, partner dose 0.001 µM)",cell count,WM115,96.9%
same,cell count,WM1716,69.9%
same,cell count,WM1745,79.9%
same,cell count,WM3526,99.7%
same,cell count,WM3619,54.6%
same,cell count,WM451Lu,91.1%
"Cc1cc(Nc2cc(N3CCN(C)CC3)nc(/C=C/c3ccccc3)n2)n[nH]1 + CN(C)S(=O)(=O)c1ccc2c(c1)/C(=C/c1cc3c([nH]1)CCCC3)C(=O)N2 [SU6656] (first compound 0.04 µM, partner dose 0.4 µM)",cell count,WM115,64.1%
same,cell count,WM1716,113%
same,cell count,WM1745,89.2%
same,cell count,WM3526,86.2%
same,cell count,WM3619,80.2%
same,cell count,WM451Lu,128%
"CC(C)C[C@H](NC(=O)[C@H](Cc1ccccc1)NC(=O)c1cnccn1)B(O)O [Bortezomib] + O=C(O)C(=O)Nc1sc2c(c1C(=O)O)CCNC2 [TCS401] (first compound 0.001 µM, partner dose 1.66667 µM)",cell count,WM115,96.9%
same,cell count,WM1716,40.3%
same,cell count,WM1745,69.4%
same,cell count,WM3526,80.6%
same,cell count,WM3619,23.2%
same,cell count,WM451Lu,92.2%
"CC(C)C[C@H](NC(=O)[C@H](Cc1ccccc1)NC(=O)c1cnccn1)B(O)O [Bortezomib] + Cn1nnc2c(C(N)=O)ncn2c1=O [temozolomide] (first compound 0.001 µM, partner dose 2 µM)",cell count,WM115,108%
same,cell count,WM1716,22.2%
same,cell count,WM1745,16.7%
same,cell count,WM3526,81.2%
same,cell count,WM3619,9.07%
same,cell count,WM451Lu,75.5%
"CC(C)C[C@H](NC(=O)[C@H](Cc1ccccc1)NC(=O)c1cnccn1)B(O)O [Bortezomib] + CN(C)S(=O)(=O)c1ccc2c(c1)/C(=C/c1cc3c([nH]1)CCCC3)C(=O)N2 [SU6656] (first compound 0.001 µM, partner dose 0.4 µM)",cell count,WM115,70.8%
same,cell count,WM1716,33.8%
same,cell count,WM1745,47.8%
same,cell count,WM3526,133%
same,cell count,WM3619,18.8%
same,cell count,WM451Lu,102%
"Cc1cn(-c2cc(NC(=O)c3ccc(C)c(Nc4nccc(-c5cccnc5)n4)c3)cc(C(F)(F)F)c2)cn1 [nilotinib] + CC(C)(C)c1cnc(CSc2cnc(NC(=O)C3CCNCC3)s2)o1 [SNS-032] (first compound 0.2 µM, partner dose 0.01 µM)",cell count,WM115,108%
same,cell count,WM1716,93.9%
same,cell count,WM1745,95.8%
same,cell count,WM3526,93.8%
same,cell count,WM3619,91.2%
same,cell count,WM451Lu,109%
"Cn1c(=O)n(-c2ccc(C(C)(C)C#N)cc2)c2c3cc(-c4cnc5ccccc5c4)ccc3ncc21 + Cn1nnc2c(C(N)=O)ncn2c1=O [temozolomide] (first compound 0.004 µM, partner dose 2 µM)",cell count,WM115,87.8%
same,cell count,WM1716,87.9%
same,cell count,WM1745,95.2%
same,cell count,WM3526,91.8%
same,cell count,WM3619,96.2%
same,cell count,WM451Lu,87.2%
"COc1ccc(C2=N[C@@H](c3ccc(Cl)cc3)[C@@H](c3ccc(Cl)cc3)N2C(=O)N2CCNC(=O)C2)c(OC(C)C)c1 [Nutlin-3] + Nc1ncn([C@H]2C[C@H](O)[C@@H](CO)O2)c(=O)n1 [decitabine] (first compound 0.1 µM, partner dose 0.1 µM)",cell count,WM115,75.4%
same,cell count,WM1716,77.7%
same,cell count,WM1745,88.8%
same,cell count,WM3526,115%
same,cell count,WM3619,81.6%
same,cell count,WM451Lu,118%
"Cn1c(=O)n(-c2ccc(C(C)(C)C#N)cc2)c2c3cc(-c4cnc5ccccc5c4)ccc3ncc21 + C[C@]1(c2nc3c(C(N)=O)cccc3[nH]2)CCCN1 [Veliparib] (first compound 0.004 µM, partner dose 1.4 µM)",cell count,WM115,81.8%
same,cell count,WM1716,90.1%
same,cell count,WM1745,98.8%
same,cell count,WM3526,96%
same,cell count,WM3619,97.9%
same,cell count,WM451Lu,83.8%
"Cc1cc(Nc2cc(N3CCN(C)CC3)nc(/C=C/c3ccccc3)n2)n[nH]1 + O=C(CCCCCCC(=O)Nc1ccccc1)NO [vorinostat] (first compound 0.04 µM, partner dose 0.08 µM)",cell count,WM115,95%
same,cell count,WM1716,99%
same,cell count,WM1745,102%
same,cell count,WM3526,83.8%
same,cell count,WM3619,96.8%
same,cell count,WM451Lu,97.7%
"Cc1cc(Nc2cc(N3CCN(C)CC3)nc(/C=C/c3ccccc3)n2)n[nH]1 + CN(NC(=O)CC(=O)NN(C)C(=S)c1ccccc1)C(=S)c1ccccc1 [STA4783] (first compound 0.04 µM, partner dose 0.006 µM)",cell count,WM115,78.5%
same,cell count,WM1716,60.5%
same,cell count,WM1745,49.8%
same,cell count,WM3526,89.9%
same,cell count,WM3619,73.9%
same,cell count,WM451Lu,97.8%
"COc1ccc(C2=N[C@@H](c3ccc(Cl)cc3)[C@@H](c3ccc(Cl)cc3)N2C(=O)N2CCNC(=O)C2)c(OC(C)C)c1 [Nutlin-3] + C=CCNC1=C2C[C@@H](C)C[C@H](OC)[C@H](O)[C@@H](C)/C=C(\C)[C@H](OC(N)=O)[C@@H](OC)/C=C\C=C(/C)C(=O)NC(=CC1=O)C2=O [Tanespimycin] (first compound 0.1 µM, partner dose 0.002 µM)",cell count,WM115,99.2%
same,cell count,WM1716,89.1%
same,cell count,WM1745,107%
same,cell count,WM3526,108%
same,cell count,WM3619,85.1%
same,cell count,WM451Lu,103%
"Cn1c(=O)n(-c2ccc(C(C)(C)C#N)cc2)c2c3cc(-c4cnc5ccccc5c4)ccc3ncc21 + Nc1ccn([C@@H]2O[C@H](CO)[C@@H](O)C2(F)F)c(=O)n1 [gemcitabine] (first compound 0.004 µM, partner dose 0.0004 µM)",cell count,WM115,93%
same,cell count,WM1716,97.1%
same,cell count,WM1745,78.7%
same,cell count,WM3526,92.7%
same,cell count,WM3619,68.9%
same,cell count,WM451Lu,95.7%
"Cc1cc(Nc2cc(N3CCN(C)CC3)nc(/C=C/c3ccccc3)n2)n[nH]1 + Cn1cncc1[C@@](N)(c1ccc(Cl)cc1)c1ccc2c(c1)c(-c1cccc(Cl)c1)cc(=O)n2C [tipifarnib] (first compound 0.04 µM, partner dose 0.01 µM)",cell count,WM115,81.8%
same,cell count,WM1716,83.1%
same,cell count,WM1745,83.4%
same,cell count,WM3526,76.4%
same,cell count,WM3619,97%
same,cell count,WM451Lu,75.7%
"Cc1cn(-c2cc(NC(=O)c3ccc(C)c(Nc4nccc(-c5cccnc5)n4)c3)cc(C(F)(F)F)c2)cn1 [nilotinib] + CN(C)S(=O)(=O)c1ccc2c(c1)/C(=C/c1cc3c([nH]1)CCCC3)C(=O)N2 [SU6656] (first compound 0.2 µM, partner dose 0.4 µM)",cell count,WM115,81.2%
same,cell count,WM1716,120%
same,cell count,WM1745,92.9%
same,cell count,WM3526,101%
same,cell count,WM3619,105%
same,cell count,WM451Lu,111%
"CC(C)C[C@H](NC(=O)[C@H](Cc1ccccc1)NC(=O)c1cnccn1)B(O)O [Bortezomib] + CN(NC(=O)CC(=O)NN(C)C(=S)c1ccccc1)C(=S)c1ccccc1 [STA4783] (first compound 0.001 µM, partner dose 0.006 µM)",cell count,WM115,80.9%
same,cell count,WM1716,31.7%
same,cell count,WM1745,35.7%
same,cell count,WM3526,84.9%
same,cell count,WM3619,16.5%
same,cell count,WM451Lu,96.2%
"COc1ccc(C2=N[C@@H](c3ccc(Cl)cc3)[C@@H](c3ccc(Cl)cc3)N2C(=O)N2CCNC(=O)C2)c(OC(C)C)c1 [Nutlin-3] + CC(=O)c1c(C)c2cnc(Nc3ccc(N4CCNCC4)cn3)nc2n(C2CCCC2)c1=O [palbociclib] (first compound 0.1 µM, partner dose 0.04 µM)",cell count,WM115,85.6%
same,cell count,WM1716,75.6%
same,cell count,WM1745,71.6%
same,cell count,WM3526,53.8%
same,cell count,WM3619,71.3%
same,cell count,WM451Lu,72.9%
"CC(C)C[C@H](NC(=O)[C@H](Cc1ccccc1)NC(=O)c1cnccn1)B(O)O [Bortezomib] + COc1ccc(Cl)c(Nc2nc3ccccc3nc2NS(=O)(=O)c2cccc(NC(=O)C(C)(C)N)c2)c1 [XL147] (first compound 0.001 µM, partner dose 0.8 µM)",cell count,WM115,90.8%
same,cell count,WM1716,35%
same,cell count,WM1745,64.9%
same,cell count,WM3526,91%
same,cell count,WM3619,24%
same,cell count,WM451Lu,84.2%
"CC(C)C[C@H](NC(=O)[C@H](Cc1ccccc1)NC(=O)c1cnccn1)B(O)O [Bortezomib] + OCCn1cc(-c2cnc3nnn(Cc4ccc5ncccc5c4)c3n2)cn1 [PF04217903] (first compound 0.001 µM, partner dose 1 µM)",cell count,WM115,80%
same,cell count,WM1716,42.6%
same,cell count,WM1745,51.7%
same,cell count,WM3526,88.2%
same,cell count,WM3619,25%
same,cell count,WM451Lu,84%
"Cc1cn(-c2cc(NC(=O)c3ccc(C)c(Nc4nccc(-c5cccnc5)n4)c3)cc(C(F)(F)F)c2)cn1 [nilotinib] + O=C(Nc1cccc(Cl)c1)Nc1ncc(CCNc2ncnc3ccsc23)s1 [SNS314] (first compound 0.2 µM, partner dose 0.0008 µM)",cell count,WM115,81%
same,cell count,WM1716,106%
same,cell count,WM1745,79.9%
same,cell count,WM3526,87.9%
same,cell count,WM3619,90.1%
same,cell count,WM451Lu,153%
"Cc1cn(-c2cc(NC(=O)c3ccc(C)c(Nc4nccc(-c5cccnc5)n4)c3)cc(C(F)(F)F)c2)cn1 [nilotinib] + CO[C@@H]1[C@H](N(C)C(=O)c2ccccc2)C[C@H]2O[C@]1(C)n1c3ccccc3c3c4c(c5c6ccccc6n2c5c31)C(=O)NC4 [Midostaurin] (first compound 0.2 µM, partner dose 0.08 µM)",cell count,WM115,94.6%
same,cell count,WM1716,71.9%
same,cell count,WM1745,68.4%
same,cell count,WM3526,83.9%
same,cell count,WM3619,89.3%
same,cell count,WM451Lu,97.9%
"Cn1c(=O)n(-c2ccc(C(C)(C)C#N)cc2)c2c3cc(-c4cnc5ccccc5c4)ccc3ncc21 + CN(NC(=O)CC(=O)NN(C)C(=S)c1ccccc1)C(=S)c1ccccc1 [STA4783] (first compound 0.004 µM, partner dose 0.006 µM)",cell count,WM115,72.8%
same,cell count,WM1716,72.9%
same,cell count,WM1745,57.9%
same,cell count,WM3526,95.7%
same,cell count,WM3619,64.9%
same,cell count,WM451Lu,92.8%
"Cc1cc(Nc2cc(N3CCN(C)CC3)nc(/C=C/c3ccccc3)n2)n[nH]1 + CS(=O)(=O)CCNCc1ccc(-c2ccc3ncnc(Nc4ccc(OCc5cccc(F)c5)c(Cl)c4)c3c2)o1 [lapatinib] (first compound 0.04 µM, partner dose 0.8 µM)",cell count,WM115,91.1%
same,cell count,WM1716,99.7%
same,cell count,WM1745,89.2%
same,cell count,WM3526,78%
same,cell count,WM3619,92.2%
same,cell count,WM451Lu,93.3%
"COc1ccc(C2=N[C@@H](c3ccc(Cl)cc3)[C@@H](c3ccc(Cl)cc3)N2C(=O)N2CCNC(=O)C2)c(OC(C)C)c1 [Nutlin-3] + CNC(=O)c1cc(Oc2ccc(NC(=O)Nc3ccc(Cl)c(C(F)(F)F)c3)cc2)ccn1 [sorafenib] (first compound 0.1 µM, partner dose 0.4 µM)",cell count,WM115,93.2%
same,cell count,WM1716,118%
same,cell count,WM1745,89.2%
same,cell count,WM3526,98.1%
same,cell count,WM3619,114%
same,cell count,WM451Lu,101%
